# Assay results: PubChem BioAssay (NCATS)
# Inconclusive means that the source gave no clear call. Such entries were picked first, then a sample of the others. Potencies beside an inconclusive call are fits to weak or partial responses and may not hold up. Active and inactive are the calls of the source. Calls come from the whole dose curve; as a rule, active = well fitted curve in the direction sought with a large enough effect; inconclusive = small, poorly fitted or top-dose-only effect, or another doubt; inactive = no such curve, though single readings can be large; an effect the other way counts as inactive or inconclusive.
# Target: Pyruvate kinase PKM (Homo sapiens) (UniProt P14618)
# Sequence of UniProt P14618 (P14618 whole entry, looked up): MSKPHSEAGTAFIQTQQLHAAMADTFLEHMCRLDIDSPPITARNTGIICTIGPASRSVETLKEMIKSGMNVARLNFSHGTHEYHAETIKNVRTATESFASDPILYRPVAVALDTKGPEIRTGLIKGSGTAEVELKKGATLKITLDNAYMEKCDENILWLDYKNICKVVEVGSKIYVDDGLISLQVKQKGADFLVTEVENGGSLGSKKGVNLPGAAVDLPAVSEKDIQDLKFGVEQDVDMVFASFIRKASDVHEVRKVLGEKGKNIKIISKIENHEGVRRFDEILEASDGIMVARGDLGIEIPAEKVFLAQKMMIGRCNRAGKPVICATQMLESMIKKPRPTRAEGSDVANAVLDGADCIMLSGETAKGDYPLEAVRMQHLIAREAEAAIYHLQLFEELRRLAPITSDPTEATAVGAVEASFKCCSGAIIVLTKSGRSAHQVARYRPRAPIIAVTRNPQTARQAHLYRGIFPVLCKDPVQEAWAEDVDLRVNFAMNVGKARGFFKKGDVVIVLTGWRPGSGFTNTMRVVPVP
# Test: qHTS Assay for Inhibitors of Human Muscle Pyruvate Kinase (AID 958)
# Settings: purified human PKM enzyme activity
# How it was run: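 Screening used highly purified human pyruvate kinase M2 under submaximal activity, with PEP at its Km and ADP below Km. After an hour at room temperature, ATP was read by luciferase luminescence.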
row,Compound,Potency
1,CCN(CC)C(=S)SSC(=S)N(CC)CC,"inconclusive: 25.1 µM [inhibitor, partial curve]"
2,O=c1[nH]c2ccccc2n1CCCN1CCN(C(c2ccccc2)c2ccccc2)CC1,"inconclusive: 0.0251 µM [inhibitor, full curve]"
3,Cc1cccc(C#Cc2ccccc2)n1,active: 25.1 µM
4,Cc1ccc(C(=O)Nc2ccc(S(=O)(=O)O)c3cc(S(=O)(=O)O)cc(S(=O)(=O)O)c23)cc1NC(=O)c1cccc(NC(=O)Nc2cccc(C(=O)Nc3cc(C(=O)Nc4ccc(S(=O)(=O)O)c5cc(S(=O)(=O)O)cc(S(=O)(=O)O)c45)ccc3C)c2)c1,"inconclusive: 31.6 µM [inhibitor, partial curve]"

# Target: Pyruvate kinase (Leishmania mexicana) (UniProt Q27686)
# Sequence of UniProt Q27686 (Q27686 whole entry, looked up): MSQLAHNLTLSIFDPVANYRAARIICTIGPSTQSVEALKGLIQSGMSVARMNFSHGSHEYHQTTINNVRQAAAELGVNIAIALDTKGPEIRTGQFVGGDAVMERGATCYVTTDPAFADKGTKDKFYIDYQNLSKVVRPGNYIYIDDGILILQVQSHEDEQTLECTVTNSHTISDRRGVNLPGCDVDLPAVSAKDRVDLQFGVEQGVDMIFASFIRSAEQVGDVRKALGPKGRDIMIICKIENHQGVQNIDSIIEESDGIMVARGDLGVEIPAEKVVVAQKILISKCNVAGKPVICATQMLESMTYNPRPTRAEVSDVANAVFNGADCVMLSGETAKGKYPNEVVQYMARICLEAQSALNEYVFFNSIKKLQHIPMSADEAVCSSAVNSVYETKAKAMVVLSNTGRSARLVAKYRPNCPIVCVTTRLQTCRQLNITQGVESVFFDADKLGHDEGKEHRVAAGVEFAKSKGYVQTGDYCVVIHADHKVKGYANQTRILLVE
# Test: qHTS Validation Assay for Activators of Leishmania Mexicana Pyruvate Kinase (AID 959)
# Settings: purified L. mexicana pyruvate kinase, enzyme activity; series mostly up to 57.5 µM; activity change, positive = activation: at the top concentration
# How it was run: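 qHTS eight-point titrations against 0.2 nM LmPYK (E451W) in imidazole buffer pH 7.2 with 0.5 mM PEP, 0.1 mM ADP; 1 h, room temperature. Readout: PKLight luminescence, normalized to neutral DMSO wells.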
Compound,"activity change, positive = activation",Potency
O=C(Nc1ccc([N+](=O)[O-])cc1Cl)c1cc(Cl)ccc1O,inactive: -71.8%,
C=Cc1c(C)c2cc3[nH]c(cc4nc(cc5nc(cc1[nH]2)C(C)=C5CCC(=O)O)C(CCC(=O)O)=C4C)c(C)c3C=C,,"inconclusive: 20 µM [activator, partial curve]"
C[C@](N)(Cc1ccc(O)c(O)c1)C(=O)O,,"inconclusive: 0.794 µM [activator, partial curve]"
Cc1ccc(C(=O)Nc2ccc(S(=O)(=O)O)c3cc(S(=O)(=O)O)cc(S(=O)(=O)O)c23)cc1NC(=O)c1cccc(NC(=O)Nc2cccc(C(=O)Nc3cc(C(=O)Nc4ccc(S(=O)(=O)O)c5cc(S(=O)(=O)O)cc(S(=O)(=O)O)c45)ccc3C)c2)c1,,"inconclusive: 0.794 µM [activator, full curve]"
